From US20230203471A1, “METHOD AND PLATFORM FOR DISRUPTING INTRACELLULAR MICROTUBULES” (National Tsing Hua University, priority 2021, published 2023)

Columns and labels:
[1] = tested on: cytosolic MTs in HeLa cells; experiment: Immunofluorescence staining of α-tubulin in HeLa cells expressing spastin constructs; assay type: cell-based; settings: HeLa cells co-transfected with EMTB-CFP-FRB
Protocol: The procedures of immunofluorescence staining are as follows. Cells cultured in borosilicate glass Lab-Tek eight-well chambers (Nunc) were fixed in 4% paraformaldehyde (Electron Microscopy Sciences) at room temperature for 15 min. Fixed cells were permeabilized with 0.1% Triton X-100 and then incubated in blocking solution (phosphate-buffered saline with 2% bovine serum albumin) for 30 min at room temperature. To label cytosolic MTs, primary ciliary membrane, and axonemal MTs, cells were incubated for 1 hr at room temperature with mouse antibody against α-tubulin (1:500; Sigma Aldrich, T6199), rabbit antibody against Arl13b (1:500; Proteintech, 17711-1-AP), mouse antibody against glutamylated tubulin (1:100; Adipogen, AG-20B-0020-C100), mouse antibody against acetylated tubulin (1:500; Sigma Aldrich, T7451), rat antibody against tyrosinated tubulin (1:100; Sigma Aldrich, MAB1864), and mouse antibody against detyrosinated tubulin (1:100; MERCK, AB3201) each of which was diluted in blocking solution. Cells were then washed with PBS and incubated for 1 hr with appropriate secondary antibodies (1:1000 dilution; Thermo Fisher) at room temperature.
Spastin is a MT-cleaving enzyme that is ubiquitous in nearly all eukaryotic cells. Expression of full-length spastin (SpastinFL-YFP; the amino acid sequence of spastin is SEQ ID NO: 1) and truncated spastin without the N-terminal 1-140 amino acids (dNSpastin-YFP) in HeLa cells removed significant amounts of cytosolic MTs, 47.45% and 42.86%, respectively, relative to YFP-transfected control cells (See FIGS. 2A to 2C). This means that both full-length spastin and truncated spastin without N-terminal 1-140 amino acids have the effect on disrupting microtubules. FIGS. 2A to 2C show the microtubule cleavage activity of artificially engineered spastin enzyme. […] The dotted line on the right indicates the periphery of the cell that expresses spastin. […] SpastinFL expressed in cells can disrupt the intracellular microtubules. […]

[2] = tested on: EMTB-CFP-FRB-labeled MTs in HeLa cells; experiment: Rapamycin-induced translocation of FKBP-tagged proteins onto EMTB-CFP-FRB-labeled MTs (FRET, live-cell imaging); assay type: cell-based; settings: 100 nM rapamycin, FRET signal
Protocol: (§1) The procedures of live-cell imaging are as follows. Live transfected cells cultured on poly(d-lysine)-coated glass coverslips (Hecht Assistent) were treated with either 100 nM rapamycin for rapid induction of protein dimerization and translocation or MT-targeting agents (10 µM nocodazole or 500 µM colchicine) during imaging. Live-cell imaging was conducted on a Nikon T1 inverted fluorescence microscope (Nikon) with a 60× oil objective (Nikon), a Prime camera (Photometrics), and 37° C., 5% CO2 heat stage (Live Cell Instrument). Rapid recruitment of proteins of interest (POIs) was imaged at 5- or 10-sec intervals, whereas the process of MT disruption was imaged at 1-min intervals. Images were obtained using Nikon NIS-Elements AR software and processed with Huygens Deconvolution Software (Scientific Volume Imaging). Image analysis was mainly performed with Nikon NIS-Elements AR software.
FIGS. 1B and 1C show the MT-binding domain of ensconsin-cyan fluorescent protein-FKBP-rapamycin binding domain (EMTB—CFP—FRB) localizes to cytosolic MTs. […] Scale bar, 10 µm. […] Subsequently, the addition of rapamycin to HeLa cells led to the rapid translocation of yellow fluorescent protein-tagged FKBP (YFP—FKBP) onto EMTB—CFP—FRB-labeled MTs as evidenced by an increased FRET (fluorescence resonance energy transfer) signal on MTs (T½ of translocation: 5.73 ± 0.54 sec; FIGS. 1D and 1E). […]

[3] = tested on: intracellular microtubules in HeLa cells; experiment: Live-cell imaging of MT disruption (MT filament area) in transfected HeLa cells; assay type: cell-based; settings: for MT disruption on recruitment onto MTs: HeLa cells, rapamycin 100 nM, live-cell imaging
Protocol: as §1
The procedures of measurement of MT filament area are as follows. The MT filaments in living cells were labeled with EMTB-CFP-FRB and imaged in real time (RAW image). The rolling ball correction was used to remove the cytosol background from the RAW images, which was carried out with the Nikon NIS-Elements AR software. Images were processed to generate the binary MT filament pattern via the Otsu threshold and analyzed by Fiji software.
FIGS. 2D and 2E show rapidly recruiting engineered spastins onto MTs. […] The top three layers are cells that simultaneously express EMTB-CFP-FRB and dNSpastin3Q-YFP-FKBP. The lower three layers are cells that simultaneously express EMTB-CFP-FRB and dNSpastin-YFP-FKBP-C2Lact. The color bar on the right indicates the brightness value represented by the color of the FRET signal. […]

[4] = tested on: ciliary axonemes and primary cilia in NIH3T3 cells; experiment: Disruption of primary cilia in serum-starved NIH3T3 cells (live-cell imaging); assay type: cell-based, mouse; settings: rapamycin 100 nM
Protocol: The procedures of cell culture and transfection are as follows. African green monkey kidney cell line COS7 (CRL-1651), cervical cancer cell line HeLa (CCL-2), human osteosarcoma cell line U2OS (HTB-96), human embryonic kidney cell line HEK293T (CRL-3216), and mouse embryonic fibroblasts NIH3T3 cells (CRL-1658) were maintained at 37° C., 5% CO2, and 95% humidity in Dulbecco’s modified Eagle’s medium (DMEM) supplemented with 10% fetal bovine serum (FBS), and penicillin and streptomycin (Corning). To induce ciliogenesis, NIH3T3 cells were serum starved for 24 hr. COS7 cells were transfected with plasmid DNAs by using TurboFect transfection reagents (Thermo Fisher). HeLa, U2OS, HEK293T, and NIH3T3 cells were transfected with FuGENE HD (Promega). Transfected cells were incubated for 24-48 hr prior to imaging and other experiments.
The procedures of live-cell imaging are as follows. Live transfected cells cultured on poly(d-lysine)-coated glass coverslips (Hecht Assistent) were treated with either 100 nM rapamycin for rapid induction of protein dimerization and translocation or MT-targeting agents (10 µM nocodazole or 500 µM colchicine) during imaging. Live-cell imaging was conducted on a Nikon T1 inverted fluorescence microscope (Nikon) with a 60× oil objective (Nikon), a Prime camera (Photometrics), and 37° C., 5% CO2 heat stage (Live Cell Instrument). […]

B1: dNSpastin3Q-YFP-FKBP: truncated spastin with key MT-binding residues mutated to three glutamines (SEQ ID NO:6), tagged with YFP-FKBP (protein)
chain: MESGAVPKRKDPLTHASNSLPRSKTVLKSGSAGLSGHHRAPSCSGLSMVSGARPGPGPAATTHKGTPKPNRTNKPSTPTTAVRQQQDLKNFRNVDSNLANLIMNEIVDNGTAVKFDDIAGQELAKQALQEIVILPSLRPELFTGLRAPARGLLLFGPPGNGKTMLAKAVAAESNATFFNISAASLTSKYVGEGEKLVRALFAVARELQPSIIFIDEVDSLLCERREGEHDASRRLKTEFLIEFDGVQSAGDDRVLVMGATNRPQELDEAVLRRFIKRVYVSLPNEETRLLLLKNLLCKQGSPLTQKELAQLARMTDGYSGSDLTALAKDAALGPIRELKPEQVKNMSASEMRNIRLSDFTESLKKIKRSVSPQTLEAYIRWNKDFGDTT[about 100 residues omitted]
- MT disruption after rapamycin treatment ([1]; 100 nM rapamycin 1 hr): robustly disrupted MTs
- MT-severing activity before rapamycin treatment ([1]; 0.1% DMSO): low MT-severing activities
- T½ of translocation from cytosol onto EMTB-CFP-FRB-labeled MTs [2]: 1.006 ± 0.0883 min
- T½ of MT disruption ([3]; HeLa cells co-transfected with EMTB-CFP-FRB, upon rapamycin (100 nM) treatment): 11.05 ± 1.52 min
- MT disruption on recruitment onto MTs [3]: significantly removed more MT filaments

B2: dNSpastin3QED-YFP-FKBP: enzyme-inactive (enzyme dead) dNSpastin3Q (SEQ ID NO:7) tagged with YFP-FKBP (protein)
chain: MESGAVPKRKDPLTHASNSLPRSKTVLKSGSAGLSGHHRAPSCSGLSMVSGARPGPGPAATTHKGTPKPNRTNKPSTPTTAVRQQQDLKNFRNVDSNLANLIMNEIVDNGTAVKFDDIAGQELAKQALQEIVILPSLRPELFTGLRAPARGLLLFGPPGNGKTMLAKAVAAESNATFFNISAASLTSKYVGEGEKLVRALFAVARELQPSIIFIDAVDSLLCERREGEHDASRRLKTEFLIEFDGVQSAGDDRVLVMGATNRPQELDEAVLRRFIKRVYVSLPNEETRLLLLKNLLCKQGSPLTQKELAQLARMTDGYSGSDLTALAKDAALGPIRELKPEQVKNMSASEMRNIRLSDFTESLKKIKRSVSPQTLEAYIRWNKDFGDTT[about 100 residues omitted]
- effect on ciliary structure when trapped on ciliary axonemes [4]: did not perturb the ciliary structure
- MT disruption on recruitment onto MTs [3]: no MT disruption

B3: dNSpastinCD-YFP-FKBP: catalytic domain of dNSpastin without the MT-binding domain (SEQ ID NO:5), tagged with YFP-FKBP (protein)
chain: MIVDNGTAVKFDDIAGQELAKQALQEIVILPSLRPELFTGLRAPARGLLLFGPPGNGKTMLAKAVAAESNATFFNISAASLTSKYVGEGEKLVRALFAVARELQPSIIFIDEVDSLLCERREGEHDASRRLKTEFLIEFDGVQSAGDDRVLVMGATNRPQELDEAVLRRFIKRVYVSLPNEETRLLLLKNLLCKQGSPLTQKELAQLARMTDGYSGSDLTALAKDAALGPIRELKPEQVKNMSASEMRNIRLSDFTESLKKIKRSVSPQTLEAYIRWNKDFGDTT[about 100 residues omitted]
- severing activity before and after recruitment onto MTs ([1]; DMSO or rapamycin): did not show severing activity
